Sequences and labels used below:
B1: LC3A_132_296 (protein)
chain: MKELAEKYLAELRALIAEAAANIADDAAVRAKLAEIEALIERAEKELTPEEVAEVFREVADDLDALSQQFLAAGREDLALEADGLAILAESRALRAEEAI
B2: LC3A_28_1248 (protein)
chain: SAIEKQLAEALAKAKAAVAAGEEVLIELTVTKDATQEDIDKIIEAMEEIAKLTASLPSTTIVINLEKGVKQENIDKLAEAAERIEEKYPNVTVILALEEE
B3: LC3A_free_39_2210 (protein)
chain: SEEELEKLIKEVAEEGGVDYEYVKKKIEEIQKIAGLSIEQMLEIVKKILEAVKAGADAKEILDEILKIAKELKAEGKSPEEILEAMLEKIEDFRNLVPLD
B4: LC3A_28_1080 (protein)
chain: SEIEKQIEEAIKEVKKAGEKGEEAVVEITVTEDATEEDIEKVIEGIKEIAELAKTSGKVSVIINLDGDIPEEHINKLADAAEEAEEANPNLTVIIALPDE
B5: LC3A_3_1475 (protein)
chain: LEERAKKVLERLKEAGASEEVLKAFEEAAKKLKELGHEEALKTFIEEAEELVGLPSELLLDFAEEALAAVEKYKDDEEKLIEEIKSIAAATRAEAEIEEL
B6: LC3A_59_2032 (protein)
chain: DEEIEEIVKKLKEAKDDIEKMAEIILEGFEEFKDDEEKLKKLKEAIIKALVESGLLSEELAKELIEEAEKIVKEEKDREKALKLIKEELKIALNEEEIEE
B7: LC3A_28_924 (protein)
chain: MTPEEIKKKIREIAEKAIKEGKEALIEITIDGSHSPEEVKEIMDELEREVKRLAEAGIKVYVVVDLDDVSQEVEQIVADRLDEITEKYPLVSAIIALDEE
B8: LC3A_28_733 (protein)
chain: SELEESIKKALEEAKKAAEKGEETVITINVPGTATEEDIEKVIKAMEEIAEITKDLKSTTIIINLDGKVPQENIDKLADHAEEIEKKYPNVTVIIALDEE
B9: LC3A_3_1702 (protein)
chain: SEELLEEAREIAEEQGLSEETIEAILEALKALLEKGYEEAAREFIELLKEAKDLSDETVLAFAEEVKEFVETEDANEEEVIEFIREEYRIALSDQEIEEL
B10: LC3A_28_1121 (protein)
chain: SSLREEWEKALEEAKKEAEEGKDVLAVFKATDDMTEEDLEFLIEKIEEAAKYLESVGQNDILVDLDMPNKPELRDRLIDGVDEIQEKYPSVNIVIALEED
B11: LC3A_28_1333 (protein)
chain: SHIDEELEKAREEAERQVAAGEDVVIEVEITGETTLEEAEYMMERLEEIVEEVAPKTKVSIIIDVDGEVSQEVIDLIAERADEIEKKYPNVTVIIALDEE
B12: LC3A_free_8_2476 (protein)
chain: KVEELVKKITALLDKLEEESTKLAKELGVDELDILELELAIGSAIAELISASDKSIEEVRKVAEEEMAEIKEIAKELGEEIYKLVEETTKEILKLIEEAE
B13: LC3A_28_876 (protein)
chain: MSVEEALAAAEAEVDAAVAAGEEALVEVVITEPISEEEARALVAGLEAIVARGASLPRLDIVISLSTKVSQAARDIIADGAEAIEARYPHVTVIIALEEE
B14: LC3A_127_218 (protein)
chain: MLEEILELVDEAARLADKLVEDPSLDEEKALKEIEELLKKALELAKKAGLPEEVIKDIEEALKLVKEAKKANPEERKELLERAALLADGVAIEIESLILK
B15: LC3A_3_1776 (protein)
chain: AEELIKETLEKLKEAGKSEETIEAAREVMTKLKEKGYEEALKTLVEELEKLLDIPDEILLDMLKDVLELLETEDLSEEEIIERIKEEARLARNEAEIEEL
B16: LC3A_28_794 (protein)
chain: AAIEATLAAARKEAEEAKAKGEEVHLTITVPAGTTVEDAKKIVAGMEEIAEFAKDLPSVSIVVDLEAGVSQEVIDVLAEGGERIEEKYPNVNVVIALAEE
B17: LC3A_free_26_2139 (protein)
chain: EKFVDIYLIDEAIDALEKAKELAKKIEGIGEKLVKLLEEALKLIEKETLESLEKAIKILKEIKELIEKDKTIDEETKKELLELVTKALEKVEEVVKIMKE
B18: LC3A_127_169 (protein)
chain: KLKELLEKILEKAEELSKLLQDPNATLEEIEKQAEELLKLAEEALKLDKEVQPVLEDAKQLLEVIKKAKEADEATQEELREQALLLLEGIIIETELLLLK
B19: LC3A_6_2067 (protein)
chain: VKVRVEIDVLLPEENEEEATEKAVEIAKKGTEELKKELEEKGYLGEEFKVEIIVEPGFVTVRIDLTVKEEAVPLVEKKAVELQDELSKVADAVLLSIEVE
B20: LC3A_141_367 (protein)
chain: MVKELKFEKENLNEDEAIKFMEEVEKKVLEEAKKVNAKKVKIKVEVTVHDPKTGKTTKYKFEDETTYENLDEVLEGFLIEVASLASNNLVSIKVEVTLEK
B21: LC3A_3_1865 (protein)
chain: MEEIKKEILELLKKLGRSEETIAEAEKLAEALIERGYEEALKELLEELKKLKNVSDEILLAMFKDLLRKLETENLNEEEIIKTIKEEARIALNENEIEEL
B22: LC3A_28_808 (protein)
chain: SLADEIIEAFKAKVDAAIAAGESTTITVEIPAELTPEEARRVAEAVYEAMVKAHKEVGLSVVIDADHRVSPEVLKIFSEMADRLEEEGVPAIIALDEPEK
B23: LC3A_28_982 (protein)
chain: NEIKEELEKKLKEAKEAAEKGEPAVITINVKGTTNEEEADLIIKTLEEIAEILKDVEGSAIIISIDRGVDQKIRDRLIEKGEEIEKKYPKVTVIFALDEE
B24: LC3A_28_821 (protein)
chain: SAVEERAERFLEEARRAAESGEETTLVLEVESSDTLEDAELLAEALREAAELLAPLKSVGIIIDFTEPVDQEVQDLLAETAEEVEERYPNVSVVIALPEE
B25: LC3A_28_986 (protein)
chain: SHMEEALAAALAAAREAAARGEARVFTITVPATATQEDIDLAVEALEEIGEILRGVKGSAIIIDLEAGVPQEHIDKLADAAERVEERNPDVSVIFALDED
B26: LC3A_147_439 (protein)
chain: YLVSADVDILTKDAEEEIIKHFEELKKELEEKGFEVKLEIEVEELENGVKYIHIKIDVKAETKEEAEEAANLIIDSVEELEEKLKDKILGSIVSVEIEEA
B27: LC3A_28_815 (protein)
chain: MTAEEIIKQIREQAEKGKQSDEMVLIEVKISGTITEEEAKEIMEVIREESAELAKDRPVAVLIDLEAPISQEVIDLIADMAEEIEKELPNVSVIIALPEE
B28: LC3A_147_410 (protein)
chain: WIVEVDVDILTKDAEEEVIEYFEELVEELKKEGYKVELEIEVEKLPNGETYIEVKITVEAETEEEAKEAAQKILDRIDEMEEKLKDKILGSLISVEISKK
B29: LC3A_28_702 (protein)
chain: SHIEKQIKKAKEIVDEAVAKGEDALLEFTITGSDTQEDIEKKLETIEEAAEKMSDVAKLYVVVDVGKDVPQERIDYIADKLEEIEEKYPNVTSVIALDEN

Consider 29 molecules from the supplement of paper PMC12632987.

Whole data set: some 2,300 sequences, median “median log2 fold change of GCK-ALFA target abundance (FLAG IP / Myc IP barcode read proportion)” near 0.095, cut for the lowest 2% near -0.47. The list shows a part of the results.

The test concerns the target MAP1LC3A, Q9H492. Description: median log2 fold change of GCK-ALFA target abundance (FLAG IP / Myc IP barcode read proportion) (log2 ratio); each designed protein is fused to an ALFA-tag nanobody in HEK293 cells to bring the named protein to FLAG-tagged glucokinase (GCK); Myc marks an untargeted standard; higher = target protein stabilised (more abundant). Particulars: target protein: 3xFLAG-MCP-GCK-ALFA reporter; HEK293 landing pad (RPLP). The method in brief: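 An ALFA-nanobody-fused binder library was recombined into HEK293 landing-pad cells and induced with 2 μg mL^−1 doxycycline. Cells were transfected with a plasmid expressing a FLAG-tagged target and a Myc-tagged standard. After 48 h, lysates underwent anti-FLAG and anti-Myc immunoprecipitation, and circular RNA barcodes were reverse transcribed, amplified and sequenced. Target abundance is the per-binder median log2 ratio of FLAG to Myc barcode read proportions. Barcodes needed ≥10^−7 proportion in both replicates, binders ≥3 barcodes per replicate, and a 10^−6 pseudocount was added; the two replicates were pooled.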
With B1, the “median log2 fold change” value came out at 0.109. In the case of B2, the “median log2 fold change” value was 0.186. The figure for B3 is 0.357. As to B4, the “median log2 fold change” value was determined as 0.185. The value for B5 was 0.299; that for B6 was 0.461; that for B7 was -0.15. The figure for B8 is 0.3; for B9 it is -0.0507. The value for B10 was -0.285. Regarding B11, the “median log2 fold change” value was -0.0444. The value for B12 was 0.0134. The figure for B13 is 0.23. The value for B14 was -0.0102. Take B15: the “median log2 fold change” value stood at 0.263. The figure for B16 is 0.283.

For the molecule B17, the “median log2 fold change” value amounted to 0.132. The figure for B18 is 0.381; for B19 it is -0.0929; for B20 it is 0.327. The figure for B21 is 0.232; for B22 it is 0.329; for B23 it is -0.196.

In the case of B24, the “median log2 fold change” value came out at 0.00388. The value for B25 was -0.173; that for B26 was -0.281; that for B27 was -0.179. The figure for B28 is -0.128; for B29 it is -0.389.
